This is one part of the list.
What follows are molecules tested on HSkMC (human skeletal muscle cells) (assay: cytotoxicity call (relative viability < 0.9)). Details: 10 µM.

SMILES	cytotoxicity call
O=C([O-])CCNC(=O)c1ccc(N=Nc2ccc(O)c(C(=O)[O-])c2)cc1.[Na+].[Na+]	inactive
C[C@H](CO)N1C[C@H](C)[C@H](CN(C)S(=O)(=O)c2cn(C)cn2)Oc2ccc(NC(=O)CCCCCC(=O)Nc3ccccc3N)cc2C1=O	inactive
O=C1CN(S(=O)(=O)Cc2ccccc2)C[C@@H]2[C@@H](c3ccc(C#Cc4cccc(F)c4)cc3)[C@@H](CO)N12	active
C[C@@H]1CN([C@H](C)CO)C(=O)Cc2cc(NC(=O)c3ccncc3)ccc2O[C@H]1CN(C)Cc1ccc(C(=O)O)cc1	inactive
C[C@H]1CN([C@@H](C)CO)C(=O)c2cccc(NS(=O)(=O)c3ccccc3)c2O[C@H]1CN(C)CC1CC1	inactive
Cc1ccc(S(=O)(=O)Nc2ccc3c(c2)CC(=O)N([C@H](C)CO)C[C@@H](C)[C@@H](CN(C)C(=O)Nc2cccc4ccccc24)O3)cc1	inactive
COc1ccc(S(=O)(=O)N(C)C[C@H]2Oc3ccc(NS(=O)(=O)c4cn(C)cn4)cc3C(=O)N([C@H](C)CO)C[C@@H]2C)cc1	inactive
C[C@@H]1CN([C@H](C)CO)C(=O)c2cccc(NC(=O)Nc3ccc(C(F)(F)F)cc3)c2O[C@@H]1CN(C)C(=O)NC1CCCCC1	active
Cc1cc(O)c2c(c1)C(=O)c1cc(O)cc(O)c1C2=O	inactive
Cc1noc(C)c1NC(=O)N(C)C[C@@H]1Oc2ccc(NS(=O)(=O)c3cn(C)cn3)cc2C(=O)N([C@@H](C)CO)C[C@@H]1C	inactive
CC(C)CC#Cc1ccc2c(c1)O[C@@H](CN(C)C(=O)c1cccnc1)[C@H](C)CN([C@@H](C)CO)S2(=O)=O	inactive
